In all, about 18,000 sequences were measured (“TetR repression strength (sort-seq, GFP reporter)”: median about 0.23, highest 2% from about 0.68 on). This is one part of the list.
What follows are sequences tested against TetR (class B, Tn10) (UniProt P04483) (assay: TetR repression strength (sort-seq, GFP reporter) (relative to tetO2 = 1); higher = stronger repression). Conditions: E. coli.
Procedure, shortened: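 Repression strength was calculated by subtracting the read-weighted mean bin from the top bin index plus one and dividing by the unaltered operator's value. The plasmid library was low-copy in E. coli SIG10-MAX, with eight randomized operator positions between a constitutive promoter and sfGFP and constitutive TetR. Cultures grew 5 h at 37 °C in LB containing 50 µg/mL chloramphenicol before 10^6 cells were sorted by FACS into 13 fluorescence bins, each sequenced on Illumina. Three independent transformations were averaged for members having ≥30 reads in all replicates and a CV ≤0.5.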

Chain of UniProt P04483 (P04483 whole entry): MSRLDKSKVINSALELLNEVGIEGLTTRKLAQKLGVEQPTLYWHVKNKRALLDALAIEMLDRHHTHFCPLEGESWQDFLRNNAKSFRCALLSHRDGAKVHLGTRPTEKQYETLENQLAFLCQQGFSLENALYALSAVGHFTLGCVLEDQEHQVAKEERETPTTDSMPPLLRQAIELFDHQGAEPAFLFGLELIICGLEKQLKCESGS

Sequence	TetR repression strength
TCCCTCTGAGTACCTGAGA	0.2
TCCCACTTAGTCGCGGAGA	0.304
TCCCTATCAGTCGCGGAGA	0.456
TCCCTATTAGTTTGCGAGA	0.417
TCCCAAAGAGTTACCGAGA	0.287
TCCCGTAGAGTTTTGGAGA	0.0915
TCCCCTGCAGTGGTGGAGA	0.314
TCCCTACCAGTATAGGAGA	0.0137
TCCCTCTGAGTGAGTGAGA	0.357
TCCCGATGAGTACGTGAGA	0.0896
TCCCCGCAAGTCGTCGAGA	0.178
TCCCTGCTAGTTGAAGAGA	0.214
TCCCTTCTAGTTCTGGAGA	0.402
TCCCACTCAGTTTCGGAGA	0.223
TCCCAGTGAGTGATCGAGA	0.162
TCCCGTCCAGTTGGAGAGA	0.169
TCCCCTACAGTGAGGGAGA	0.029
TCCCACTGAGTCCGGGAGA	0.368
TCCCTGGTAGTGCGGGAGA	0.00546
TCCCGTTCAGTAACTGAGA	0.351
TCCCTGCGAGTCGTGGAGA	0.319
TCCCGTATAGTGGTGGAGA	0.0729
TCCCAACGAGTAGTCGAGA	0.0311
TCCCGTTGAGTAGCCGAGA	0.181
TCCCTATCAGTGAGCGAGA	0.73
TCCCACCGAGTACAGGAGA	0.219

Sequence	TetR repression strength
TCCCTGTAAGTGTCTGAGA	0.3
TCCCATAAAGTGCGTGAGA	0.166
TCCCGCATAGTCGGTGAGA	0.193
TCCCAGGCAGTCGGTGAGA	0.213
TCCCCTGTAGTTGATGAGA	0.145
TCCCCCCCAGTGGAGGAGA	0.208
TCCCCTTCAGTGTGCGAGA	0.254
TCCCAAGTAGTGGCGGAGA	0.126
TCCCGCCTAGTGTTGGAGA	0.234
TCCCGATGAGTCATTGAGA	0.274
TCCCGCGGAGTATATGAGA	0.201
TCCCCATGAGTGGGCGAGA	0.384
TCCCAGGCAGTCTACGAGA	0.212
TCCCTGTGAGTGTCGGAGA	0.369
TCCCACGCAGTCGGGGAGA	0.262
TCCCAAAAAGTCTATGAGA	0.392
TCCCATTAAGTTTGTGAGA	0.304
TCCCTAGAAGTGGCGGAGA	0.0993
TCCCTAGGAGTGGCGGAGA	0.177
TCCCTCCAAGTTTTTGAGA	0.522
TCCCGGTGAGTATGGGAGA	0.21
TCCCATGTAGTCGCAGAGA	0.332
TCCCTTTTAGTGGTGGAGA	0.212
TCCCATCTAGTGGTAGAGA	0.377
TCCCAGTGAGTGGCTGAGA	0.145
TCCCTACTAGTTGTTGAGA	0.0558

Sequence	TetR repression strength
TCCCAGCGAGTTCTAGAGA	0.421
TCCCCTGAAGTTTTTGAGA	0.323
TCCCTGCGAGTGCGCGAGA	0.208
TCCCCAGCAGTATCTGAGA	0.312
TCCCACGTAGTGATCGAGA	0.229
TCCCTCGCAGTAAGCGAGA	0.419
TCCCAGAAAGTGGGGGAGA	0.278
TCCCGGTTAGTGACGGAGA	0.375
TCCCGTGGAGTCATGGAGA	0.127
TCCCTGGCAGTGTCTGAGA	0.172
TCCCTGTCAGTCCTGGAGA	0.403
TCCCCCAGAGTTAACGAGA	0.207
TCCCAGAAAGTGTAGGAGA	0.0624
TCCCAGGCAGTCTCTGAGA	0.215
TCCCTTCAAGTTTAGGAGA	0.177
TCCCTGATAGTGACTGAGA	0.29
TCCCTAGGAGTGATCGAGA	0.448
TCCCACTTAGTCTGGGAGA	0.115
TCCCGTGCAGTTTCCGAGA	0.214
TCCCTAGTAGTTTGTGAGA	0.228
TCCCGCCTAGTCACTGAGA	0.682
TCCCCTACAGTACAGGAGA	0.0811
TCCCCTAGAGTCATGGAGA	0.0544
TCCCGTTCAGTAGGCGAGA	0.261
TCCCTCTTAGTTGAGGAGA	0.288
TCCCGACGAGTCGTTGAGA	0.157

Sequence	TetR repression strength
TCCCTTCCAGTGGGTGAGA	0.113
TCCCTCGAAGTTCTTGAGA	0.407
TCCCACGTAGTGGTCGAGA	0.0586
TCCCGTCCAGTGTTGGAGA	0.316
TCCCACTGAGTCTTAGAGA	0.311
TCCCCGCCAGTTCGCGAGA	0.13
TCCCCAGTAGTGGGCGAGA	0.963
TCCCGTAAAGTGTGGGAGA	0.319
TCCCCGTGAGTTCGCGAGA	0.215
TCCCAAGCAGTTTCAGAGA	0.475
TCCCGTCGAGTCTCGGAGA	0.313
TCCCTACAAGTCATAGAGA	0.251
TCCCTGCTAGTGTGTGAGA	0.31
TCCCTTACAGTGCAGGAGA	0.113
TCCCAAGGAGTCCGGGAGA	0.294
TCCCAGGCAGTGCACGAGA	0.212
TCCCATGTAGTTCCCGAGA	0.427
TCCCAGCCAGTATTGGAGA	0.296
TCCCTGGGAGTCACGGAGA	0.216
TCCCCAGGAGTCATCGAGA	0.397
TCCCGAGCAGTGGCAGAGA	0.286
TCCCCAGCAGTTGGGGAGA	0.304
TCCCACAAAGTCGGTGAGA	0.267
TCCCGTTGAGTGTCGGAGA	0.2

Reference: a collection of fitness landscapes (doi:10.1038/s41467-024-54723-y)
